Reference: paper PMC4336329 (PLoS ONE, 2015)
Screen size: about 310,000 compounds; about 14,000 (4.5%) showed an effect of 50% or more. Effects have a minus sign here. The list shows a part of the results.

These compounds were tested against human ether-à-go-go-related gene (hERG) potassium channel (human, UniProt Q12809) (assay: primary screen, population patch clamp on CHO cells stably expressing hERG).
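Note: peak tail current of the secondary pulse compared with the same well before compound.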

human ether-à-go-go-related gene (hERG) potassium channel, sequence (Q12809 whole entry, looked up): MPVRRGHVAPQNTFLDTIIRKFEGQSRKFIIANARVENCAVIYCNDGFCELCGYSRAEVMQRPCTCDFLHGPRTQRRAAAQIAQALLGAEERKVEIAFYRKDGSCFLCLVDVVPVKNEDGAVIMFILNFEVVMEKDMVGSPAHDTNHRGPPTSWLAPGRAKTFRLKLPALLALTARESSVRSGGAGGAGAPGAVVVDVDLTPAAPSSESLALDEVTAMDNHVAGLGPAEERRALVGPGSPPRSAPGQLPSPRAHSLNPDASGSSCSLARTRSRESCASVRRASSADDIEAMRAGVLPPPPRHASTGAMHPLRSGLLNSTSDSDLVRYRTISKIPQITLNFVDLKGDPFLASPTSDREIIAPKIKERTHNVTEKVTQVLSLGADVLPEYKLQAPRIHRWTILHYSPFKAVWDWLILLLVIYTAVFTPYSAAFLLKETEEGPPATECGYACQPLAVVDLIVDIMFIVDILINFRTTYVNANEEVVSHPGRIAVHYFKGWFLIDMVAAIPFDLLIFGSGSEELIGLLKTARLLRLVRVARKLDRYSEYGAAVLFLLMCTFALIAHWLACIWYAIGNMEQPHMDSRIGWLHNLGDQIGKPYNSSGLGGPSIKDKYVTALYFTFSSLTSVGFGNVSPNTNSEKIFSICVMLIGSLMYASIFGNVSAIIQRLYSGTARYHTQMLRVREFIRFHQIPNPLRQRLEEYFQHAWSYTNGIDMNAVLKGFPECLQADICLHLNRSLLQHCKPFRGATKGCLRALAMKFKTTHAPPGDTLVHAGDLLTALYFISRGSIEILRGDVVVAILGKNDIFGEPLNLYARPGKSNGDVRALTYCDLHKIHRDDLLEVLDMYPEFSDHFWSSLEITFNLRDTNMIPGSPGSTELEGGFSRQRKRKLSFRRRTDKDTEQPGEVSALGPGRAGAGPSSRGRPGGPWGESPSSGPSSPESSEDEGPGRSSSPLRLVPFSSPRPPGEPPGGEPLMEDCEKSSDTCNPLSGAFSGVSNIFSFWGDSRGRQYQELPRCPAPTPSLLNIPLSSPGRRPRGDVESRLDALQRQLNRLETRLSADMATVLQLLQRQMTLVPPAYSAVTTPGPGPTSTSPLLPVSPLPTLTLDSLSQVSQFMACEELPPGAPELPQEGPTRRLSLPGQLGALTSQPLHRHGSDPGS

SMILES | hERG current change (%, negative = inhibition) at 10uM
O=C1COc2ccc(C(=O)COC(=O)CCSc3ccccc3)cc2N1 | -2.37%
COc1ccc(NS(=O)(=O)c2ccc(NC(=S)NC(=O)/C=C/c3ccccc3)cc2)nn1 | -3.33%
CCOC(=O)CCn1nc(-c2ccc(Cl)cc2)cc1N | 4.1%
CCn1c(C)nc2cc(C(=O)OC(C(F)(F)C(F)F)C(F)(F)C(F)F)ccc21 | -37.7%
COc1ccc(/C=C/C(=O)c2ccccc2)cc1COc1ccc(F)cc1 | -0.749%
Cc1cc(C)c(C(=O)CC(=O)c2ccccc2Cl)c(O)c1 | 8.64%
CCOC(=O)c1[nH]c2cc(OC)c(OC)cc2c1NC(=O)c1nonc1C | 8.53%
COc1ccc(CN(C(C)=O)c2cccc(C)c2C)cc1 | -1.15%
COc1cccc(CNC(=O)CCC(=O)N2CCOCC2)c1 | 16.7%
CCCCN(C(=O)Cn1nnc2ccccc21)C(C(=O)NCCOC)c1ccc(OC)cc1OC (stereo not shown) | 0.724%
O=C(c1cccc(C(F)(F)F)c1)N1CCCCCC1 | -10.2%
O=[N+]([O-])c1cccnc1NCc1cccs1 | 12.4%
CCN1CCN(Cc2c(O)ccc3c(=O)c(-c4ccc(OC)c(OC)c4)c(C)oc23)CC1 | 1.96%
Cc1c(Br)c([N+](=O)[O-])nn1CC(=O)N(C)Cc1ccccc1 | -20%
O=C(COC(=O)CCc1ccc(S(=O)(=O)N2CCOCC2)cc1)NCc1ccc(Cl)cc1 | -16.4%
O=C(CS(=O)(=O)Cc1ccccc1)N1CCN(Cc2ccc3c(c2)OCO3)CC1 | -11.6%
Cc1cccc(CC2S/C(=N/N=C/c3ccco3)NC2=O)c1 (stereo not shown) | 7.05%
CC1CC(C)CN(C(=O)c2ccc(NS(=O)(=O)c3ccc4[nH]c(=O)[nH]c4c3)cc2)C1 (stereo not shown) | -25.4%
Cc1ccc(-c2c3c(=O)n(C)c(=O)n(C)c3cn2-n2cnnc2)cc1 | -23%
COc1ccc(-c2cc(C(=O)N3CCOCC3)c3cc(C)ccc3n2)cc1 | -15.5%
CCOP(=O)(OCC)C(NC(=O)c1cccc(C)c1)C(Cl)(Cl)Cl (stereo not shown) | 12.3%
COCc1[nH]nc2c1C(c1ccc(F)cc1F)C(C#N)=C(N)O2 (stereo not shown) | 6.13%
Cc1cccc(COc2ccccc2/C=N/Nc2ccc([N+](=O)[O-])cc2)c1 | -5.78%
CCOC(=O)NC(Nc1ccc(S(N)(=O)=O)cc1)(C(=O)OCC)C(F)(F)F (stereo not shown) | 6.76%
CC(C)n1c(/C=C/[C@H](O)C[C@H](O)CC(=O)[O-])c(-c2ccc(F)cc2)c2ccccc21.[Na+] | 11.4%
Cc1ccc(N(C)C(=O)C2CCCN2S(=O)(=O)c2cccc3nsnc23)cc1 (stereo not shown) | 1.28%
COc1ccc(CN2CCN(C(=O)c3ccco3)CC2)cc1OCc1ccccc1 | -51.2%
c1ccc2c(-c3nn4nnnc4c4ccccc34)cccc2c1 | -5.2%

SMILES | hERG current change (%, negative = inhibition) at 10uM
CCCCOCCCn1c(-c2ccco2)nc2nc3ccccc3nc21 | -55.9%
Cc1cc(=O)[nH]c(SCC(=O)c2c(N)n(C)c(=O)n(C)c2=O)n1 | 12.6%
CCc1nc(N2CCCCC2C(=O)O)c2oc3ccccc3c2n1 (stereo not shown) | 17.9%
O=C(CN1CCCc2ccccc21)N/N=C/c1ccccc1 | -23.8%
CCOC(=O)c1cc2c(=O)n3ccccc3nc2n(Cc2ccco2)c1=NC(=O)c1ccc(OC)cc1OC | -54.2%
C=CCSc1nc(N)c(C#N)c(-c2ccccc2)c1C#N | 2.45%
Cc1cc(C(=O)N2CCN(c3cc(Cl)ccc3C)CC2)on1 | -58.7%
COC(=O)CCc1c(C)nc(N)[nH]c1=O | 14.4%
Cc1ncc(CO)c(/C=N/NC(=O)c2ccccc2Br)c1O | 16.1%
Cc1c(C(=O)Nc2cccc(S(=O)(=O)N3CCCC3)c2)oc2ccccc12 | 5.98%
COc1ccc(CCN(C(=O)c2snc(C(N)=O)c2N)C(C)C(=O)NC2CCCCC2)cc1OC (stereo not shown) | -13.9%
O=C(Cn1c(-c2ccccc2)noc1=O)N1CCC(Cc2ccccc2)CC1 | -41.5%
Cc1cc(C)n(-c2ccc(NC(=O)C3CCN(Cc4cnc(C)s4)CC3)cc2)n1 | -10.1%
O=C1NC(=O)/C(=C/c2cccc3ccccc23)S1 | 18.4%
CCCC(=O)N(Cc1cc2ccccc2[nH]c1=O)c1ccccc1OC | 10.2%
CC(C)c1ccc(OCc2nc(-c3ccccn3)no2)c(Br)c1 | -10.6%
COCCn1c(SCC(=O)Nc2ccccc2OC)nc2ccccc21 | -25.4%
C=CCn1c(N)c(C(=O)NCCC2=CCCCC2)sc1=S | 12.3%
Cn1cc([N+](=O)[O-])c(C(=O)Nc2cc(Oc3cccnc3)cc([N+](=O)[O-])c2)n1 | -11.2%
CS(=O)(=O)N1CCN(C(=O)c2cc(-c3cccs3)nc3ccccc23)CC1 | -17.3%
Cc1cccc(C(=O)N(Cc2nc3ccccc3c(=O)[nH]2)C2CCCC2)c1 | -3.16%
CCOc1cccc(C(=O)Nc2ccc3[nH]ncc3c2)c1 | 27.9%
Cc1ccc(NC(=S)N2CCN(c3ccccn3)CC2)c(C)c1 | 6.92%
O=C1c2ccccc2C(=O)N1CCOc1ccccc1Br | 14.8%
COc1cc(C2NC(=O)NC(C)=C2C(=O)OCc2ccc(C)cc2)cc(OC)c1OC (stereo not shown) | 7.38%
Cc1ccc(C)c(CSc2nnc(-c3cccnc3)o2)c1 | 0.791%
COc1ccc(-c2nc(CS(=O)CC(=O)N3CCOCC3)c(C)o2)cc1OC (stereo not shown) | 9.9%
